The whole screen tested about 320,000 compounds, of which about 200 (0.062%) were called active. This list was built around the results that the source calls inconclusive (neither active nor inactive); the mix of calls is not that of the screen. Calls come from the whole dose curve; as a rule, active = well fitted activation curve with a large enough effect; inconclusive = small, poorly fitted or top-dose-only effect; inactive = no such curve, though single readings can be large or run the other way. No potency is given beside an inconclusive call; the fits are too rough.
Experiment: qHTS assay for re-activators of p53 using a Luc reporter; note: nearly all actives have a fitted effect of over 45% in size
Conditions: H1299 p53-A138V BP100-luciferase reporter, luminescence, 24 h; series mostly up to 92.2 µM
Method in brief: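 H1299 (p53-null), stable ts p53-A138V + BP100-Luc; 1000 cells/well, Opti-MEM/10% FBS; cpd 4 pt, 1:5; 24 h, 37 deg C, 5% CO2; detection reagent 10 min RT; luminescence.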
Potency is the fitted concentration of half-maximal effect; tags give direction and shape of the fitted curve.

| Structure (SMILES) | Potency |
| --- | --- |
| C=CCn1cccc(C(=O)Nc2ccc(C)c(Cl)c2)c1=O | inconclusive [activator, full curve, poor fit] |
| COC(=O)C1C(=O)c2c([nH]c(C(=O)OC3CCCCCC3)c2C)CC1C (configuration not stated) | inactive |
| Fc1cccc(NC(=S)NC2CCCCCCC2)c1 | inconclusive [activator, partial curve, poor fit] |
| CCCN(Cc1nnc(-c2cccs2)o1)C(=O)CN1C(=O)NC2(CCCCC2C)C1=O (configuration not stated) | inactive |
| C=CCOc1ccc2nc(NC(=O)OC)[nH]c2c1 | inconclusive [activator, partial curve, poor fit] |
| O=C(CN(C(=O)c1ccc(Cl)cc1)C1CCCCC1)Nc1ccc(Cl)c([N+](=O)[O-])c1 | inconclusive [activator, partial curve, poor fit] |
| Cc1cnc(NC(=O)c2ccc(Cl)nc2)s1 | inconclusive [activator, partial curve, poor fit] |
| CC(C)n1c2ccccc2c2nnc(SCC(=O)OCN3C(=O)c4ccccc4C3=O)nc21 | inconclusive [activator, single point] |
| Oc1c(C=NCc2ccncc2)sc2ccccc12 | inconclusive [activator, partial curve, poor fit] |
| CC(NS(=O)(=O)c1ccc(Br)cc1)C(=O)Nc1nc2ccccc2[nH]1 (configuration not stated) | inconclusive [activator, partial curve, poor fit] |
| C=CCSc1nncn1/N=C/c1ccc(OC)cc1 | inconclusive [activator, partial curve, poor fit] |
| COc1ccc(C(=O)Nc2ccncc2)cc1S(=O)(=O)N1CCOCC1 | inconclusive [activator, full curve, poor fit] |
| CN(C)c1ccnc2sc(C(=O)c3ccccc3)c(N)c12 | inconclusive [activator, partial curve, poor fit] |
| CCOC(=O)C1(Cc2cccc(OC)c2)CCCN(C(=O)c2ccccc2C)C1 (configuration not stated) | inconclusive [activator, partial curve, poor fit] |
| CCn1cc(/C=C/C(=O)c2ccc(O)cc2)c(C)n1 | inconclusive [activator, partial curve, poor fit] |
| Cc1c(C(=O)O)cccc1-c1ccc(/C=N/n2cnnc2)o1 | inactive |
| O=C(CC12CC3CC(CC(Br)(C3)C1)C2)NC1CCCC1 | inactive |
| Cc1cccc(NC(=O)/C=C/c2ccc3c(c2)OCO3)n1 | inconclusive [activator, partial curve, poor fit] |
| CCC(=O)NC(c1cc(Cl)c2cccnc2c1O)C1CC1 (configuration not stated) | inconclusive [activator, single point] |
| COC(=O)CNC(=O)C1(C)C=CCN1C(=O)c1ccccc1 (configuration not stated) | inconclusive [activator, partial curve, poor fit] |
| Cc1ccc2sc(-c3ccc(NC(=O)CCN4C(=O)c5ccccc5C4=O)cc3)nc2c1 | inconclusive [activator, partial curve, poor fit] |

| Structure (SMILES) | Potency |
| --- | --- |
| Nc1c(C(=O)N/N=C/c2ccccc2)cnn1-c1ccccc1 | inconclusive [activator, full curve, poor fit] |
| CC(=O)c1c(C)[nH]c(C(=O)OCc2c(F)cccc2Cl)c1C | inactive |
| COc1ccc(C(CNC(=O)c2cccn2C)N2CCOCC2)cc1 (configuration not stated) | inconclusive [activator, partial curve, poor fit] |
| CN(C)/C=C1\Oc2ccc3ccccc3c2C1=O | inconclusive [activator, partial curve, poor fit] |
| O=C(/C=C/Sc1ccccc1)c1ccccc1 | inconclusive [activator, partial curve, poor fit] |
| COc1cccc(C2Nc3ccc4ccccc4c3C3=C2C(=O)CC(C)(C)C3)c1OCC(=O)O (configuration not stated) | inactive |
| O=C(COc1ccccc1)N/N=C/c1ccc([N+](=O)[O-])o1 | inconclusive [activator, single point] |
| NNC(=O)c1cccc(COc2ccc3c(c2)CCC3)c1 | inconclusive [activator, partial curve, poor fit] |
| CCC1CSC(Nc2ccc(C(=O)/C=C/c3ccc(Br)cc3)cc2)=N1 (configuration not stated) | inactive |
| O=C(Nc1ccc(NC(=O)c2ccccc2Br)cc1)c1ccccc1 | inactive |
| CN(Cc1ccccc1)C(=O)c1ccc(NC(=O)Cc2cccc(NC(=O)C3CCCN(C(=O)C4CCCCC4)C3)c2)cc1 (configuration not stated) | inactive |
| CSc1nsc(SCC(=O)Nc2nc3ccc(C)cc3s2)n1 | inconclusive [activator, full curve, poor fit] |
| COc1ccc(CN2CCC(Oc3cc(C(=O)NC4CC4)ccc3OC)CC2)c(O)c1 | inactive |
| Cc1noc(C)c1CCC(=O)N1CCCC(CO)(Cc2ccccc2)C1 (configuration not stated) | inconclusive [activator, partial curve, poor fit] |
| O=C(Nc1ccc(Br)cn1)c1cccc(C(=O)Nc2ccc(Br)cn2)c1 | inconclusive [activator, full curve, poor fit] |
| COC(=O)C(N)Cc1ccc(O)cc1 (configuration not stated) | inactive |
| COc1ccc2c(c1OC)C(=O)OC2Nc1nc(-c2ccc(-c3ccccc3)cc2)cs1 (configuration not stated) | inconclusive [activator, partial curve, poor fit] |
| Cc1ccc2c(c1)CCCN2C(=O)Nc1ccc2c(c1)OCO2 | inconclusive [activator, partial curve, poor fit] |
| CCOC(=O)C(CC)/C(C)=N\NC(=O)c1ccccc1O (configuration not stated) | inconclusive [activator, full curve, poor fit] |
| Cc1ccc(-c2n[nH]c(Cc3ccccc3)n2)cc1 | inconclusive [activator, partial curve, poor fit] |
| COc1ccc(C(=O)NC(=S)Nc2ccc([N+](=O)[O-])cc2C)cc1OC | inactive |
